Data reported in article PMC6155330.

Biological target: BubR1 (human (endogenous in HeLa)) (UniProt O60566)
Test: co-IP; as a1, the cells treated with the GSK3 inhibitor SB415286 (SB) and MG132 after Taxol; Mad2/BubR1 band intensities by ImageJ from three separate experiments, against DMSO control

Chain of UniProt O60566 (O60566 whole entry): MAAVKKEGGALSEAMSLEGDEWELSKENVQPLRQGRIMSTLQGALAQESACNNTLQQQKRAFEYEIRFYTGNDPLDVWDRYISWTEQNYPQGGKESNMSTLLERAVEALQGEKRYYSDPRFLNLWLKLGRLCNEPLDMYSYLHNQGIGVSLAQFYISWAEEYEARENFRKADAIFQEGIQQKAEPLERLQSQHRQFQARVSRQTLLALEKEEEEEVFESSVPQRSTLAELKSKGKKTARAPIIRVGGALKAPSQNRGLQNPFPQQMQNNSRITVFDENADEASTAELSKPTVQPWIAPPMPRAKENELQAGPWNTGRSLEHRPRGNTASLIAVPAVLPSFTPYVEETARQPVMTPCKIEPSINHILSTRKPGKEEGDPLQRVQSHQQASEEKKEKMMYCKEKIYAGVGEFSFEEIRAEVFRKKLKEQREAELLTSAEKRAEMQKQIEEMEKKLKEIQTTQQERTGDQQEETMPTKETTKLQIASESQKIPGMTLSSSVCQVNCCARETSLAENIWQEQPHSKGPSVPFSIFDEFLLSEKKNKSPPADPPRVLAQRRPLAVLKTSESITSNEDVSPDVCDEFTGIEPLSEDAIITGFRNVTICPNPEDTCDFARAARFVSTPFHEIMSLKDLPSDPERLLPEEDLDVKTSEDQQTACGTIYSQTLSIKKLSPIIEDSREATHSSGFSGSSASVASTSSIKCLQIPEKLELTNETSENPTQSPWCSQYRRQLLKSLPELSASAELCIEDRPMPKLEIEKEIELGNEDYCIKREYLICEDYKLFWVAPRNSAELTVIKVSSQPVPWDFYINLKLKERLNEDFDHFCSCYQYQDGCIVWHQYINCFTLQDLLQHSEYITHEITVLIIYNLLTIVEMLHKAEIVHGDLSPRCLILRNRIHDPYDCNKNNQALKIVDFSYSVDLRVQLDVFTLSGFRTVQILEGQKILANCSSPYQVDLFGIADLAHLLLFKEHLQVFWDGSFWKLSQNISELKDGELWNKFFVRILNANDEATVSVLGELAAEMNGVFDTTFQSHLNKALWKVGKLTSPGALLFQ

- percent decrease of the Mad2/BubR1 ratio in SB415286-treated cells against DMSO control: 75%
Substance: Mad2 (a stretch of the chain, sequence not shown) (natural protein; other documents disagree on this pair)
